Each structure is given as a SMILES string. Hit rate of the full screen: of about 2,200 compounds, fewer than 10 were called active. This is one part of the list. The source made no clear call on entries shown without one.

For the test, the target named is GTPase KRas (Homo sapiens) (UniProt P01116). The test can be described thus: Covalent labelling of cysteine mutants by fragments, read by mass spectrometry (AID 2202238). Also noted: protein at 5 µM with 500 µM competing thiol for 1.5 h. To be noted: KRAS G12D cysteine mutants, disulfide tethering, MALDI-TOF labeling; stronger effect = higher value; H27C mutant labeling; fragment at 500 µM.
Chain of UniProt P01116 (P01116 whole entry, looked up, the tested form may be a part): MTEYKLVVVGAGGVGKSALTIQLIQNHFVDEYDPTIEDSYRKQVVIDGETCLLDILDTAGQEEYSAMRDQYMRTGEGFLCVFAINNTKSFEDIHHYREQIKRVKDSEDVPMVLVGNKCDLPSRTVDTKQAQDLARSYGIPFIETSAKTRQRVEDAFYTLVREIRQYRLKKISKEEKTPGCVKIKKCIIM
The compound `O=C(NCCS)c1ccc(C2CCCOC2)cc1` (stereo not given) displayed a percent labeling of 31.2%.

In turn, `Cc1ccc(Cl)c2sc(NC(=O)CCS)nc12` registered a percent labeling of 38.2%.

`CCc1[nH]c(-c2ccccc2)cc1C(=O)NCCS` came in with a percent labeling of 28.8%.

The compound `O=C(CCS)NCc1cn(CC(=O)Nc2cc(F)cc(F)c2)nn1` gave a percent labeling of 29%.

`CC(C)COc1ncc(CNC(=O)CCS)cc1Cl` gave a percent labeling of 31.5%.

`CCC1CCc2sc(C(=O)NCCS)cc2C1` (stereo not given) gave a percent labeling of 15.2%.

In the case of `O=C(CCS)N1CCC(n2cc3ccccc3n2)C1` (stereo not given), the percent labeling came out at 40.1%.

The compound `O=C(CCS)N1CC(O)CC1c1cc(F)ccc1F` (stereo not given) yielded a percent labeling of 37.9%.

`CC1(NC(=O)CCS)CCOC12CC2(F)F` (stereo not given) registered a percent labeling of 31.7%.

As for `O=C(NCCS)C(c1ccc(Br)cc1)N1CCCC1` (stereo not given), the percent labeling turned out to be 38%.

In turn, `Cc1ccc(CN(C)c2ccc(C(=O)NCCS)cc2)cc1` gave a percent labeling of 25.8%.

Regarding `Cc1nc(C)n(CC2CCCN(C(=O)CCS)C2)n1` (stereo not given), the percent labeling is 40.2%.

The compound `O=C(CCS)Nc1ccc(Cl)nc1OCc1ccccc1` had a percent labeling of 25.1%.

Take `O=C(NCCS)c1ccc(Cl)c2occc12`: the percent labeling is 20.1%.

`Cc1nn(C)c(N2CCOCC2)c1CNC(=O)CCS` had a percent labeling of 37.6%.

In turn, `O=C(CCS)NC1(c2nc(-c3ccsc3)no2)CCCCC1` came in with a percent labeling of 26.4%.

With `O=C(Cn1nccc1-c1ccccc1)NCCS`, the percent labeling was 28.6%.

On to `Cc1cc(Oc2ccccc2C#N)ncc1NC(=O)CCS`, for which the percent labeling was found to be 48.6%.

Turning to `Cc1cc(C)nc(-n2cc(C(=O)NCCS)c(C)n2)n1`, the percent labeling came out at 37.8%.

On to `COC(=O)C1(C2(O)CCN(C(=O)CCS)CC2)CCC1`, for which the percent labeling turned out to be 39.6%.

For the compound `NC(=O)N1CCc2cc(NC(=O)CCS)ccc21`, the percent labeling came out at 47.6%.

As to `Cc1cc(NC(=O)CCS)cnc1N1CCCCC1C` (stereo not given), the percent labeling was 32.2%.

For `Cn1ncc2nc(C(F)(F)F)c(C(=O)NCCS)cc21`, the percent labeling was 44.9%.

`O=C(NCCS)c1cc2c(Br)c(F)ccc2[nH]1` yielded a percent labeling of 25%.

`Cn1cc(NC(=O)CCS)c(-c2ccccn2)n1` had a percent labeling of 36.1%.

Consider `O=C(NCCS)c1csc(-c2cc3ccccc3o2)n1`, for which the percent labeling was determined as 26.1%.

The compound `Cn1nnc(CN2CCC[C@@H]2C(=O)NCCS)n1` gave a percent labeling of 32.2%.

The compound `O=C(NCCS)c1cnn(-c2ccc(Cl)cc2Cl)c1` registered a percent labeling of 30%.

Compound `Cc1ccc(S(=O)(=O)N2CCC(C(=O)NCCS)CC2)cc1Cl` registered a percent labeling of 25.1%.

As for `Cc1noc(CN2CCN(C(=O)CCS)CC2)n1`, the percent labeling amounted to 31.6%.

With `O=C(CCC(=O)N1CCOc2ccccc21)NCCS`, the percent labeling was determined as 38.6%.

As for `O=C(CCS)Nc1cccc(-c2ccccc2C(F)(F)F)c1F`, the percent labeling is 39.6%.

Compound `CC(C)(C)OC(=O)N1CCC2(CC1)CCN2C(=O)CCS` came in with a percent labeling of 28.2%.

Take `Cn1ccc(NC(=O)CNC(=O)CCS)n1`: the percent labeling is 27.4%.

The compound `O=C(CCS)Nc1ccc(SCc2ccccc2)c(Br)c1` yielded a percent labeling of 4%.

The compound `O=C(CCS)NCCn1ccc2c(Br)cccc21` registered a percent labeling of 39.2%.

Compound `O=C(CCS)Nc1ccc(Oc2ccccc2)c(F)c1` had a percent labeling of 25.7%.

`CC(C)n1nccc1C1NC(=O)CCC1NC(=O)CCS` (stereo not given): the percent labeling was found to be 34.2%.

In turn, `O=C(CCS)N1CCC(n2ccc(=O)[nH]c2=O)CC1` gave a percent labeling of 38.2%.

Compound `O=C(NCCS)c1cc2ccc(Br)cc2c(=O)[nH]1` registered a percent labeling of 28.3%.

For the compound `CC1(N2CCCC2)CCN(C(=O)CCS)CC1`, the percent labeling was determined as 43.3%.

As for `O=C(NCCS)c1ccc2nc(-c3ccc(F)cc3)[nH]c2c1`, the percent labeling was determined as 25%.

Compound `Cc1noc(-c2ccccc2C(=O)NCCS)n1` registered a percent labeling of 35.7%.

`O=C(NCCS)c1ccc2[nH]c(=O)n(CC(F)(F)F)c2c1` came in with a percent labeling of 53.3%.

`O=C(CCS)NC1(c2ncccc2F)CCC1` had a percent labeling of 34.7%.

On to `Cc1sc2ncn(CCC(=O)NCCS)c(=O)c2c1C`, for which the percent labeling was 34%.

With `COC(=O)c1cc(C2CN(C(=O)CCS)C2)[nH]n1`, the percent labeling came to 34.5%.

Regarding `Cc1cccc(NC(=O)CCNC(=O)CCS)n1`, the percent labeling came to 14.9%.

Consider `CC(O)(CN1C(=O)C(C)(C)c2ccccc21)C(=O)NCCS` (stereo not given), for which the percent labeling turned out to be 38.5%.

Consider `CC1CC1c1ccc(CNC(=O)CCS)o1` (stereo not given), for which the percent labeling amounted to 29.9%.

`O=C(Cc1cc2ccccc2c(=O)o1)NCCS` showed a percent labeling of 34.2%.

Regarding `Cn1cc(CN(Cc2cnn(C)c2)C(=O)CCS)cn1`, the percent labeling was determined as 41.7%.

In turn, `O=C(CCS)N1CCC(n2cnc3ccccc32)CC1` had a percent labeling of 48.5%.

The compound `CC(C)(O)c1n[nH]c(CNC(=O)CCS)n1` came in with a percent labeling of 31.9%.

With `N#Cc1cc2c([nH]c1=O)CCC(NC(=O)CCS)C2` (stereo not given), the percent labeling came out at 43.4%.

In turn, `Cn1ccnc1[C@H]1[C@H](C(=O)NCCS)CCC(=O)N1C1CC1` had a percent labeling of 26.8%.

Compound `Cc1nc(N2CCN(C(=O)CCS)CC2)n[nH]1` showed a percent labeling of 33.3%.

On to `Cc1nc(N)c2c(C)c(C(=O)NCCS)sc2n1`, for which the percent labeling was determined as 32.7%.

In turn, `Cc1nccc(-c2cccc(NC(=O)CCS)c2)n1` yielded a percent labeling of 40.6%.

The compound `Cn1cnc2cccc(CNC(=O)CCS)c21` came in with a percent labeling of 42.6%.

In turn, `O=C(NCCS)c1occc1CN1C(=O)Cc2ccccc21` yielded a percent labeling of 26.7%.

`O=C(NCCS)C1CCN(c2ccc3cccc(O)c3n2)CC1` returned a percent labeling of 22.5%.

In turn, `COc1ccc(Br)cc1C1(NC(=O)CCS)CC1` displayed a percent labeling of 36.5%.

Compound `Cc1ccc(C(=O)NCCS)cc1-c1cnn(C)c1` returned a percent labeling of 41.5%.

As to `CC(NC(=O)c1ccc(Br)o1)C(=O)NCCS` (stereo not given), the percent labeling is 34.1%.

`O=C(CCn1c(=O)[nH]c(=O)c2ccccc21)NCCS`: the percent labeling is 35.5%.

Turning to `O=C(CCCc1c[nH]c2ccccc12)NCCS`, the percent labeling is 29.2%.

Take `O=C(NCCS)c1ccc2c(Br)cnn2c1`: the percent labeling came out at 25.1%.

Compound `O=C(NCCS)c1occc1-c1ccc(F)cc1` showed a percent labeling of 22.7%.

`C[C@H]1OCC(=O)N(Cc2ccccc2)[C@@H]1C(=O)NCCS` registered a percent labeling of 34.5%.

Values taken from PubChem BioAssay AID2202238 (Ras Initiative Chemistry Research Team, Frederick National …, 2025).
